Assay results taken from PubChem BioAssay AID686979 (National Center for Advancing Translational Sciences (NCATS), 2013).
The whole screen tested about 420,000 compounds, of which about 50,000 (12%) were called active. Inconclusive results, whose numbers are uncertain, are shown with a selection of clear calls. Calls come from the whole dose curve; as a rule, active = well fitted inhibition curve with a large enough effect; inconclusive = small, poorly fitted or top-dose-only effect; inactive = flat fitted curve, though single readings scatter. Potencies of inconclusive entries are left out as doubtful fits.

Assay: qHTS for Inhibitors of human tyrosyl-DNA phosphodiesterase 1 (TDP1): qHTS in cells in presence of CPT; note: nearly all actives have a fitted effect of over 55% in size
Details: chicken DT40 Tdp1-/-;hTDP1 cells + 20 nM CPT, ATP luminescence, 48 h; activity change, negative = growth inhibition: at 46.2 µM (top of the series) unless noted
Outline: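 Chicken DT40 Tdp1-/- cells stably complemented with human TDP1 were seeded at 400 cells/well in medium containing 20 nM camptothecin, exposed to pin-transferred compounds, and grown at 37 °C for at least 48 hr. Viability was read as ATP luminescence.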
% is set by controls: 0 for no effect and ±100 for the full control effect; potency is the fitted concentration of half-maximal effect; tags give direction and shape of the fitted curve.

SMILES	activity change, negative = growth inhibition	Potency
c1ccc(NN(Cc2cnccn2)c2ccccc2)cc1	inactive: -22.9%	–
COc1cc(C(=O)Nc2c(C)cc(C)cc2C)c(-n2cnnn2)cc1OC	inactive: -21.6%	–
C=CCOc1c(Br)cc(/C=N/n2c(CC)n[nH]c2=S)cc1Br	–	inconclusive [inhibitor, single point]
COc1ccc(CCn2c(C)cc(C(=O)COC(=O)c3cnc(C)cn3)c2C)cc1	–	inconclusive [inhibitor, single point]
CCOc1ccc2ncc3c(-c4ccc(C)cc4)nn(-c4cccc(F)c4)c3c2c1	inactive: -16.2%	–
CSc1ccc(CN(C)CC(=O)NC(=O)NCCC2=CCCCC2)cc1	–	inconclusive [inhibitor, single point]
COc1cc(C2OC(c3cc(OC)c(OC)c(OC)c3)C(C)C2C)cc(OC)c1OC (stereo unspecified)	–	inconclusive [inhibitor, single point]
CCSc1ccc(-c2cc(NC=O)c3ncc(-c4cc(OC)c(OC)c(OC)c4)n3c2)cc1	–	inconclusive [inhibitor, single point]
NC(=O)C1(N2CCCCC2)CCN(C(=O)c2ccc(C#Cc3ccccc3)o2)CC1	–	inconclusive [inhibitor, partial curve]
c1cncc(CNc2cc(-c3ccc4c(c3)OCO4)ncn2)c1	inactive: 7.24%	–
COC(=O)N1CCC[C@@]2(CCN(c3ccccc3)C2)C1	–	inconclusive [inhibitor, single point]
CCCc1cc2c(=O)n(NC(=O)c3nn(C)cc3[N+](=O)[O-])c(C)nc2s1	inactive: 4.84%	–
CCN(CC)S(=O)(=O)c1cc([N+](=O)[O-])ccc1NNC(=O)Nc1ccc(F)cc1	–	inconclusive [inhibitor, partial curve, poor fit]
O=S(=O)(c1cccc(Cl)c1)c1nnn2c1nc(NCc1ccc3c(c1)OCO3)c1sccc12	–	inconclusive [inhibitor, single point]
O=C(O)c1ccccc1N(c1ccccc1)c1ccccc1	inactive: 2.15%	–
O=C(N/N=C/c1ccc([N+](=O)[O-])o1)c1sc2ccccc2c1Cl	–	active: 23.1 µM
CC1CCN(S(=O)(=O)c2ccc3c(c2)n(C)c(=O)n3C)CC1	inactive: 0.293%	–
COc1ccc(-c2nc3c(c(SCC(=O)N4CCCCC4)n2)Cc2cc(C)ccc2O3)cc1	–	inconclusive [inhibitor, full curve, poor fit]
C[C@H](CO)N1C[C@H](C)[C@@H](CN(C)C(=O)Nc2ccc(C(F)(F)F)cc2)Oc2ccc(NS(=O)(=O)c3ccc(F)cc3)cc2C1=O	–	inconclusive [inhibitor, single point]
COc1ccc(CN2CCC(C(=O)N3CCCC(C)C3)CC2)cc1OC (stereo unspecified)	inactive: -0.382%	–
CC(C)(C)C#CCn1c(/C=[N+](\[O-])C2CCCCC2)nc2ccccc21	–	active: 11.6 µM
O=C(NC1CC1)c1c(O)c2ccccc2[nH]c1=O	–	inconclusive [inhibitor, single point]
Cc1ccc(S(=O)(=O)N2CCOCC2)cc1C(=O)Nc1cc(S(=O)(=O)N2CCCCC2)ccc1O	–	inconclusive [inhibitor, single point]
CC(C1CC1)N(Cc1ccccc1)C(=S)Nc1cccc(C(F)(F)F)c1 (stereo unspecified)	–	inconclusive [inhibitor, partial curve]

SMILES	activity change, negative = growth inhibition	Potency
Cc1nc2ccccc2c(=O)n1/N=C/c1ccccn1	inactive: 0.841%	–
COc1cccc(/C=C/C(=O)c2c(O)cc(C)oc2=O)c1O	–	inconclusive [inhibitor, single point]
CC(OC(=O)Cc1c[nH]c2ccccc12)C(=O)Nc1ccccc1F (stereo unspecified)	inactive: -1.48%	–
CN(NC(=O)C(C)(C)C)c1nc(-c2ccccc2)nnc1C(F)(F)F	–	inconclusive [inhibitor, single point]
Cc1ccc(C)c(N2CCN(C(=O)Cn3cnc4onc(-c5ccc(F)cc5)c4c3=O)CC2)c1	–	active: 23.1 µM
Cn1ccnc1/C(=N\NC(=O)c1ccc(O)cc1)c1cccc([N+](=O)[O-])c1	inactive: -29.6%	–
Cc1ccc2c(c1)N(C(=O)CCC(=O)NC1CCC(C)CC1)CCO2 (stereo unspecified)	–	inconclusive [inhibitor, single point]
CCc1nc2ccc(C(=O)NCCCN(C)C)cn2c1N(C)Cc1ccc(OC)cc1	–	inconclusive [inhibitor, partial curve]
COc1ccc(S(=O)(=O)N2CCOC23CCN(S(=O)(=O)c2ccc(F)cc2C)CC3)cc1	–	inconclusive [inhibitor, single point]
COc1ccc(CCn2c(C)cc3c(c2=O)C(c2ccc4c(c2)OCO4)C(C#N)=C(N)O3)cc1OC (stereo unspecified)	–	active: 13 µM
N#Cc1ccc(C23CC4(C2)[C@H](CN(Cc2cccnc2)[C@@H]4c2ccccc2)C3c2ccccc2)cc1 (stereo partly specified)	–	active: 9.2 µM
CCOc1cc(CN2CCCC(N3CCN(c4ccc(F)cc4)CC3)C2)ccc1OC (stereo unspecified)	–	active: 16.4 µM
CCn1cc(C(=O)Nc2ccc(F)c(F)c2)cn1	inactive: -23.9%	–
CCOC(=O)c1c(C#N)c(SCC(=O)Nc2ccc(OC)cc2)nc2c1CN(CC)CC2	inactive: -15.8%	–
CCc1nnc(NC(=O)c2cc(=O)c3cc(C)ccc3o2)s1	inactive: -14.1%	–
CN1OC[C@@H]2CN3C(=O)N(c4ccccc4)c4ccccc4[C@@H]3C[C@@H]21	–	inconclusive [inhibitor, full curve, poor fit]
COc1ccccc1CNC(=O)C(=O)NCC(c1cccs1)S(=O)(=O)c1ccccc1 (stereo unspecified)	–	inconclusive [inhibitor, single point]
COc1ccccc1-c1cc(-c2ccccc2)nc(SC(C(N)=O)c2ccccc2)c1C#N (stereo unspecified)	–	inconclusive [inhibitor, single point]
COC(=O)C1=C(C(=O)OC)[C@@H]2N(C)c3ccc(OC)cc3[C@@]23C[C@@H](C(=O)OC)N(C(=O)COCc2ccccc2)C3=N1	–	inconclusive [inhibitor, single point]
O=[N+]([O-])c1ccc(COc2cccc(CNc3ccc(F)cc3)c2)cc1	–	active: 25.9 µM
Cc1ccc(S(=O)(=O)n2nc(OC(=O)c3c(F)cccc3Cl)cc2N)cc1	inactive: 6.22%	–
CCN(CC)c1ccc(/C=N/N2CCN(Cc3ccc(C)cc3)CC2)c(O)c1	–	inconclusive [inhibitor, partial curve]
CCN(CC)S(=O)(=O)c1ccc(Cl)c(C(=O)NC2CCCC2)c1	–	inconclusive [inhibitor, single point]
CC1(C)Cc2ccccc2-c2nnc(C(F)(F)F)n21	inactive: -19%	–

SMILES	activity change, negative = growth inhibition	Potency
C=CCN=c1scc(C)n1/N=C/c1ccc(O)c(O)c1	–	active: 16.4 µM
COc1ccc(NC(=O)CC2(CC(=O)O)CCCC2)cn1	inactive: 5.15%	–
Cc1cc(Cl)ccc1OCC(=O)N[C@@H](Cc1ccccc1)c1nc2ccccc2[nH]1	–	active: 20.6 µM
Cc1ccc(SCCNC(=O)c2ccc(C)c(S(=O)(=O)Nc3ccccc3C)c2)cc1	–	inconclusive [inhibitor, single point]
Cc1ccc(C)c(NS(=O)(=O)c2cc3c4c(c2)CC(=O)N4CCC3)c1	–	inconclusive [inhibitor, single point]
CCCS(=O)(=O)NC(=O)C1(C)CCN(C(=O)c2cc(OC)c(OC)c(OC)c2)C1 (stereo unspecified)	inactive: 5.74%	–
CCNc1nc(Oc2ccc(Cl)cc2Cl)cc(C(F)(F)F)n1	–	inconclusive [inhibitor, single point]
Cn1c2ccccc2c(=O)c2ccc(C#CC3(O)CCCCC3)cc21	–	active: 13 µM
COCCNC(=O)COc1ccc(C)cc1C(=O)c1cc(C#N)c(=O)n(C2CC2)c1	inactive: 0.747%	–
Cc1cccc(C(=O)N[C@H](C(=O)Nc2cc(S(=O)(=O)N3CCCCC3)ccc2C)C(C)C)c1	–	inconclusive [inhibitor, single point]
COCCN(C(=O)CSc1nnc(-c2ccccc2F)o1)c1c(N)n(Cc2ccccc2)c(=O)[nH]c1=O	inactive: -0.0013%	–
Cc1ccc(C(=O)Nc2ccc3c(c2)OCO3)cc1S(=O)(=O)N1CCCC1	–	inconclusive [inhibitor, single point]
CC(C)(C)c1ccc(C(=O)NCC(=O)N/N=C/c2ccccc2OCC(=O)O)cc1	inactive: 3.93%	–
O=C(O)C(Cc1c[nH]c2ccccc12)NS(=O)(=O)c1ccc(F)cc1 (stereo unspecified)	inactive: -10.8%	–
O=C(CN1C(=O)S/C(=C\c2ccccc2)C1=O)NCCCn1ccnc1	–	inconclusive [inhibitor, single point]
COc1ccc(OC)c(S(=O)(=O)NCC(c2cccs2)N2CCc3ccccc3C2)c1 (stereo unspecified)	–	active: 16.4 µM
CC(C)(C)NS(=O)(=O)c1ccc(CCC(=O)NCc2ccccn2)cc1	inactive: -11.8%	–
CCOC(=O)N1CCN(C(=S)Nc2ccc3nc(N4CCN(CC)CC4)cc(C)c3c2)CC1	–	inconclusive [inhibitor, single point]
C[C@H](CO)N1C[C@H](C)[C@H](CN(C)S(=O)(=O)c2ccc3c(c2)OCCCO3)OCc2cnnn2CCCC1=O	–	inconclusive [inhibitor, single point]
Cc1cc(C(=O)N2CCCc3ccccc32)ccc1[N+](=O)[O-]	inactive: -5.16%	–
CN1C(=O)C(O)(CC(=O)/C=C\c2ccc3c(c2)OCO3)c2ccccc21 (stereo unspecified)	–	inconclusive [inhibitor, single point]
COC(=O)C1CCN(C(=O)COC(=O)c2ccc3[nH]c4c(c3c2)CCCC4)CC1	–	active: 13 µM
NC(=O)c1ccc(NC(=O)COC(=O)c2cc3ccccc3cc2O)cc1	inactive: 1.49%	–
